The results in this text go back to paper PMC12136788.

Some of the results follow.

To fix the notation:
T1: UNK ZnF1-3 (human, UniProt Q9C0B0 31-174)
T1 sequence: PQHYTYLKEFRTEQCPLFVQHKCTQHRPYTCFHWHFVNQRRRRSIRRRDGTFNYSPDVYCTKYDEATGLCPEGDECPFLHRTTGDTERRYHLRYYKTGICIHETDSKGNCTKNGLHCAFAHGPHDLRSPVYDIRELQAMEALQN

B1: chr7:19737724:19737725:-_ENSG00000105849_ENST00000222567|hu_mus|FALSE|FALSE (ssRNA)
RNA: GGGAGUUCUACAGUCCGACGAUCGAGCUUUAACAAUAUGAGUCAAGAGUAAAUGCAAUUGUUAACAUUUUCCACUGAACUGUAAUAAAAUAAUACUUUAAUACUGGCAUUUUCCAAAAUGUAUUUAUCAAUGUAUGAUUUUAGCAACAGAGGAUUGAGCAUCA
B2: chr11:87793471:87793472:-_ENSMUSG00000020483_ENSMUST00000020775|mus_mus|mus_mus_mus_hu_False|28_58 (ssRNA)
RNA: GGGAGUUCUACAGUCCGACGAUCUGGACUUGAAAAUAAAAGAAUAAGCUGGAUCCCCCACCCCCCCACAUUGUCAACCCUAUGCGAGAGUUUUGAAGGCGACUCAUGAAUCAGCAGAGCUCAAACGGCAAUGACCACCCCACCCAACAGAGGAUUGAGCAUCA
B3: chr5:24093644:24093645:+_ENSMUSG00000038181_ENSMUST00000088295|mus_hu|FALSE|FALSE (ssRNA)
RNA: GGGAGUUCUACAGUCCGACGAUCCUCCUUCUGCCUGCUCUUCAACUGUGAAGGUGUCGGAACUAACCCCCAGCCAAAACGGUAAUAAAUGAAACAAUCAAUUUCACUCACACUGGGAUUAUGGUCUGUCUUCCACUAAAAAGACAACAGAGGAUUGAGCAUCA
B4: 90669621_90670016_1274_3pUTR_ENSG00000113369_ENST00000265138|human|control|control (ssRNA)
RNA: GGGAGUUCUACAGUCCGACGAUCUCCUCUGUUACCACUUCUGCAUAGCUGGGUGGUGCUUCAGGUCUUUCAGGAAGUGAUAAACUGAGCCAGUUCAUAUUCAUGCUACACUGACUGCUUACACUUGAGGUUCUGCUACCAAAUCAACAGAGGAUUGAGCAUCA
B5: chr7:102950833:102950834:+_ENSG00000105819_ENST00000453466|hu_mus|FALSE|FALSE (ssRNA)
RNA: GGGAGUUCUACAGUCCGACGAUCGACCAUAUAGAGUCCCCAUAAUCCUGUGUCUGUAUAUGAAGUAUUGAAGGACUGGAAGCUGUGGCAGAGAUUGCCAUGGCAAGUGAGUUGGGCCAGCUUGCUAGAUAAAUUCAUUCCUCCCAACAGAGGAUUGAGCAUCA
B6: chr14:76904430:76904431:+_ENSMUSG00000022010_ENSMUST00000022587|mus_mus|mus_mus_mus_hu_True|1_1 (ssRNA)
RNA: GGGAGUUCUACAGUCCGACGAUCUGCAGCCAAAAACACCCUCGUGGAAAAAAAGAGGGAACACCAGCAGCCUUGUAUAAGCUAGAUAAAAUCUUCUGGCUUUCCGCAGCCCAGGGAGAAACAGAAAACGGCAGCCCUCGAGUGCAACAGAGGAUUGAGCAUCA
B7: 9102711_9117871_144_CDS_ENSG00000178127_ENST00000318388|human|control|control (ssRNA)
RNA: GGGAGUUCUACAGUCCGACGAUCCAUAACUGUCUUAUGCAAAUUCCUUACAUGUCUUCCCCAGUGGGCGGUGAGGCCAGCCGCCCGGGCCCGGAGCGCCGCGGAGAAGAACAUGGCGGGCCACACUGUUCACCUUCCCCAGCCCAACAGAGGAUUGAGCAUCA
B8: chr17:65740002:65740003:+_ENSG00000130935_ENST00000581375|hu_hu|hu_hu_hu_mus_False|38_78 (ssRNA)
RNA: GGGAGUUCUACAGUCCGACGAUCAACAAAUCUUUCUUCCCUGGACGAACAGGAAGACAUAAAAGAGAAAAAAUAUAUAUCCAUCAAGUUAGGUGUGUAAUAUCAGACUUUACUCCCAGCACUUUGGGAGGUGGAUCUCUGAGUCAACAGAGGAUUGAGCAUCA
B9: chr1:16667403:16667404:+_ENSMUSG00000025940_ENSMUST00000065373|mus_mus|motif|central (ssRNA)
RNA: GGGAGUUCUACAGUCCGACGAUCGUCAUAACCCAUUAGAUGGUUAUAGUCUUCAGGGUUUAAAAAGAGUGCUGGAUUAACGGAUAGCGAUUUUGUUUUAGCAUAAAAGCUGGUGAAUAUAUGUGCGCUCUCUGGAAUUGUCACCAACAGAGGAUUGAGCAUCA
B10: chr9:72560005:72560006:+_ENSMUSG00000032216_ENSMUST00000034740|mus_mus|FALSE|FALSE (ssRNA)
RNA: GGGAGUUCUACAGUCCGACGAUCAGCCUGGUCUGCAUUUUCAUCUUCUGAGCCAUUUUUAGGUAAAUAAGUCAUUUUUAAUCUCAGAUAACCUUUAACUCUUGAUUUGUGACUUCUUGGAUGAAGAACAAAAUCCUUAAAUGUCAACAGAGGAUUGAGCAUCA
B11: chr3:152055631:152055632:+_ENSMUSG00000025437_ENSMUST00000117492|mus_hu|FALSE|FALSE (ssRNA)
RNA: GGGAGUUCUACAGUCCGACGAUCAGAGUCAGGGUGAUUUAGGACAAUGAAAAAGUUUUCAAAGCAAAAGUAUUUACAACACUACAAAGGAUACUAUGGAUCUGCAUGUAGUGUAAAGAUUAAAGAUAACCUACUGAUUUCACACAACAGAGGAUUGAGCAUCA
B12: chr3:138113954:138113955:+_ENSMUSG00000028138_ENSMUST00000005964|mus_mus|FALSE|FALSE (ssRNA)
RNA: GGGAGUUCUACAGUCCGACGAUCCGAAGGAUCGAUUUUAGCAACAGAGAUGUCAGCCACAACUGUGUACUCGGAAAAUGUGCUAGUCCCCAUGAAGUGAAAAACAGACUUUCCUUUGCAGGUAAAUCUGCUAGUCCCAUCUGGCAACAGAGGAUUGAGCAUCA
B13: chr5:69964302:69964303:+_ENSMUSG00000029208_ENSMUST00000154728|mus_mus|motif|central (ssRNA)
RNA: GGGAGUUCUACAGUCCGACGAUCCAGUAUCAAGACUUUUUCUUGGAGUAAUGUAUUUUUCAGUUUGUUAUGAACAUGAAACGGAUCCAUUUAUUAGCUGUGUCAUUUAGGUAUGUUUAGUUAAUAGCUUCUAAUUUAUUAACACAACAGAGGAUUGAGCAUCA
B14: chr19:8913615:8913616:-_ENSMUSG00000071658_ENSMUST00000096259|mus_hu|mus_mus_mus_hu_False|88_98 (ssRNA)
RNA: GGGAGUUCUACAGUCCGACGAUCAGGGUACCAAAACACCCUGCCUCAGAUAGGUGCCCCACCCAGUAGGGAGUUGCAGCUGAAAGUAUCUGAUGCAGAAGCAGUGACUAUACGAAAGGAGGCCCCUGGGGAGGGCCAGGCCAGCAACAGAGGAUUGAGCAUCA
B15: chr16:64763996:64763997:-_ENSMUSG00000059920_ENSMUST00000076991|mus_mus|FALSE|FALSE (ssRNA)
RNA: GGGAGUUCUACAGUCCGACGAUCAGGCUUUUUAAGAAUUCAAAAAUUCAAUAUGAAAGAUAGCUUUUUAAAAAACCUUUCUAUAGCAGUAACACAAAUAGCCCAUGGAUUGUUUUUAAUCUUAUGCUUUUCUCAGGGCAUUUACAACAGAGGAUUGAGCAUCA
B16: chr3:9412954:9412955:+_ENSG00000134077_ENST00000452837|hu_mus|hu_hu_hu_mus_False|68_68 (ssRNA)
RNA: GGGAGUUCUACAGUCCGACGAUCGGUUGAUAUCUCUUCUUUGAUGGCUGGAUUUUCAUAAUAGUCCAAGAUAUGAGAAUCUGAAGUGCUGCUGGCAUGCUUUUUCUUACCAUCUUUCUCAUCUGCUUUGUCUCCUUGUCCACACAACAGAGGAUUGAGCAUCA
B17: chr2:163839828:163839829:+_ENSMUSG00000018326_ENSMUST00000018470|mus_mus|FALSE|FALSE (ssRNA)
RNA: GGGAGUUCUACAGUCCGACGAUCGGAGUUGGACACCGUGGUUUGUUUAUUUUCUCCGGAUGCAACUUCAGAAAGAUACCUAAAGUAGUCUCCUUUCAUUUUUAAGUAGAACACUUUGCUUUCUGCCUGGGUGGCAUUGAGAAUCAACAGAGGAUUGAGCAUCA
B18: chrX:71549762:71549763:+_ENSMUSG00000019087_ENSMUST00000019231|mus_mus|mus_mus_mus_hu_False|18_38 (ssRNA)
RNA: GGGAGUUCUACAGUCCGACGAUCAAACCCGUGUACUUCUUAUUGUUAGCACAACAUCACCAGAAAACGAUAACGACAGCCAAGCAGGACAGACAGUCAAGUAGUCUUUCCACACUCCGCAAAUUCAGGAGCCCUAUAACCUUACAACAGAGGAUUGAGCAUCA
B19: chr4:54876292:54876293:-_ENSG00000109220_ENST00000263921|perfect_dup|motif|central (ssRNA)
RNA: GGGAGUUCUACAGUCCGACGAUCCUAUAAAUAAAGCAAAUGCUAAUCUGGUCGAAAAAUCGGUGUCUUUGGUAAAAAUUCGGUGAGGAUGACAUAUUCCAUCAUGUUGUUCGUUUCACAUUUCCUUUUGCUCAGUCUCCAGUGCAACAGAGGAUUGAGCAUCA
B20: chr13:48835921:48835922:+_ENSG00000136156_ENST00000378565|hu_mus|FALSE|FALSE (ssRNA)
RNA: GGGAGUUCUACAGUCCGACGAUCAUAUGGGCUAUACAAAUUAGUAACAUGAGUUGCUUCUUAAAUUCCAAACAUUUGUCUAAAAUCUUAUUACAGCAGAGGCCUAGGAUAUUAAAACAUCAAGGCUGAAAUCCUCUAAAGUAGCAACAGAGGAUUGAGCAUCA
B21: chr1:127300101:127300102:-_ENSMUSG00000026341_ENSMUST00000027579|perfect_dup|motif|central (ssRNA)
RNA: GGGAGUUCUACAGUCCGACGAUCGGUGUACUGUUUGAUCCACUUUGACCCAUCGGUGUCAUACUUGUUAAACUCUUUUACGGAAUCUGGGCAGACAUAACUGUAGCGUUCCUUCACUGCUUUCGCAGUUUCCAAGGACUGCUCCAACAGAGGAUUGAGCAUCA
B22: chr8:117878989:117878990:-_ENSG00000164754_ENST00000297338|hu_hu|hu_hu_hu_mus_True|38_48 (ssRNA)
RNA: GGGAGUUCUACAGUCCGACGAUCCCAGAGGCCCUCGUUUACUGAGGACAAAAUGUGCGUAGAACAUUUUUCUUAUUUGCUAUGAAAACAGAAGAAAACCUUGCUCUGGCGGGGAGCCGGGAGGGGUGGGUGGCCCGGGGAGGGCAACAGAGGAUUGAGCAUCA

The test addresses T1, UNK ZnF1-3. Briefly: nsRBNS (natural sequence RNA bind-n-seq); RBNS binding buffer (assumed for nsRBNS): 25 mM Tris pH 7.5, 150 mM KCl, 3 mM MgCl2, 0.01% Triton X-100, 500 ug/ml BSA, 20 U/ml SUPERase-In, 4 C; UNK is unkempt and MSI1 is Musashi-1; names of the RNAs are library labels; protein concentration not given here; high values mean tight binding.
Molecule B1 had a binding signal of 0.585 enrichment R.

Molecule B2 registered a binding signal of 1.37 enrichment R.

In turn, B3 showed a binding signal of 1.34 enrichment R.

Regarding B4, the binding signal turned out to be 0.631 enrichment R.

For the molecule B5, the binding signal worked out at 1.14 enrichment R.

Take B6: the binding signal was 1.81 enrichment R.

Molecule B7 gave a binding signal of 0.918 enrichment R.

As for B8, the binding signal turned out to be 1.23 enrichment R.

For the molecule B9, the binding signal was 0.874 enrichment R.

Take B10: the binding signal was determined as 0.934 enrichment R.

B11 returned a binding signal of 0.866 enrichment R.

Take B12: the binding signal is 1.1 enrichment R.

B13: the binding signal is 0.881 enrichment R.

For B14, the binding signal was 1.41 enrichment R.

Molecule B15 returned a binding signal of 1.02 enrichment R.

B16: the binding signal came to 0.539 enrichment R.

B17 had a binding signal of 0.646 enrichment R.

B18 yielded a binding signal of 1.03 enrichment R.

In the case of B19, the binding signal came to 1.46 enrichment R.

The molecule B20 had a binding signal of 0.869 enrichment R.

In the case of B21, the binding signal worked out at 0.435 enrichment R.

On to B22, for which the binding signal was 1.37 enrichment R.
